Measurements reported in paper PMC4207660, “Identification and Characterization of Hundreds of Potent and Selective Inhibitors of Trypanosoma brucei Growth from a Kinase-Targeted Library Screening Campaign” (PLoS Neglected Tropical Diseases, 2014).

Key:
[1] = target: T1, Human Serum Albumin (HSA) (Homo sapiens, UniProt P02768); experiment: Protein binding assay (HPLC stationary phase), HSA; format: in vitro ADME; details: Measured
T1 construct: purchased Chiral Technologies, France
Method: Chemically bonded Human Serum Albumin (HSA) and Alpha-1-acidglycoprotein HPLC stationary phases (Chiral Technologies, France) were used for measuring compounds' binding to plasma proteins, applying linear gradient elution up to 30% iso-propanol. The run time was 6 min, including the re-equilibration of the stationary phases with the 50 mM pH7.4 ammonium acetate buffer. The obtained gradient retention times were standardised using a calibration set of mixtures as described in the references. The average standard error of the assay depends on the binding strength and kinetics of the compounds.

[2] = CLND kinetic solubility assay; format: physicochemical; details: phosphate buffered saline, pH 7.4, aqueous buffer, kinetic from dmso stock; Measured; read-out: Aq Sol
Method: 5 µL of 10 mM DMSO stock solution was diluted to 100 µL with pH 7.4 phosphate buffered saline, equilibrated for 1 hour at room temperature, filtered through Millipore MultiscreenHTS-PCF filter plates (MSSL BPC). The filtrate was quantified by suitably calibrated flow injection Chemi-Luminescent Nitrogen Detection.

[3] = target: Cytochrome P450 (CYP450) (Homo sapiens, UniProt P08684); experiment: Cytochrome P450 inhibition profile; format: in vitro ADME; details: Measured
Method: The P450 inhibition profile of the inhibitors was determined as previously described.

[4] = tested on: T. brucei brucei parasites (Lister 427 strain); experiment: Dose response growth inhibition assay (resazurin, 72 h); format: cell-based; details: Trypanosoma brucei; T. b. brucei growth inhibition; read-out: Tbb pEC50 (converted)
Method: Greiner sterile black clear bottom 384-well assay plates were pre-dispensing with 200 nL of compound in each well, from master plates at 1 mM (100% DMSO) containing selection from the GSK compound collection. Controls of 0% response (control 1, 200 nL of 100%DMSO) and 100% response (control 2, 200 nL of 1 mM pentamidine) were included in each assay plate in columns 6 and 18, respectively. Plates containing 200 nL of 100% DMSO were included randomly in the assay, to assess quality through all process. […] After this period, 10 µL of 200 µM resazurin solution in prewarmed HMI-9 were added to each well, and plates were allowed to incubate 2 hours more prior fluorescence reading in a Wallac EnVision Multilabel Plate Reader (Perkin-Elmer). Raw fluorescent data from the Envision plate reader were uploaded into GSK HTS database (ActivityBase). Activity of each well was normalized as a percentage of inhibition per-plate basis using the following equation: [drawing 1]
For dose-response experiments, serial compound dilutions of selected hits from the primary campaign were plotted against compound concentration. Dose response master plates were prepared by 3-fold dilutions (starting with 10 mM DMSO stock solutions), providing 11 concentrations. From these master plates, 200 nL per well was stamped in final assay plates, including the same controls describe in the primary single shot assay. […]

[5] = ChromlogD assay
Method: The Chromatographic Hydrophobicity Index (CHI)[22] values were measured using reversed phase HPLC column (Luna C18 (2), Phenomenex, UK) with a fast acetonitrile gradient at starting mobile phase of pH = 7.4. CHI values are derived directly from the gradient retention times by using a calibration line obtained for standard compounds. The CHI value approximates to the volume % organic concentration when the compound elutes. […] The average error of the assay is ±3 CHI unit or ±0.25 ChromlogD.

HSA % binding [1] | solubility kinetic at 1 h [2] | IC50 ([3]; CYP3A4, VG substrate, read-out: CYP3A4VG pXC50 (converted)) | IC50 ([3]; CYP3A4, VR substrate, read-out: CYP3A4VR pXC50 (converted)) | PFI [5] | SMILES | EC50 [4]
93.61% | 228 µM (≈ 75.3 µg/mL) | 25100 nM | > 50100 nM | – | NC(=O)c1ncc(NC[C@@H]2CCCN2)nc1Nc1cccc(F)c1 [NEU-0001109] | 63.1 nM
– | ≥ 540 µM | – | – | 5.37 | Nc1cc(-c2ccc3ncnc(N4CCOCC4)c3c2)cnc1N [NEU-0001111] | –
– | – | – | – | – | Nc1nc(Nc2cccc(S(N)(=O)=O)c2)nc2c1cnn2C1CCC1 [NEU-0001107] | 398 nM

In brackets after ≈: the same amount, converted by molar mass. Where two headings read alike, the source gives them in different places.
